Screen size: about 310,000 compounds; about 2,200 (0.71%) showed an effect of 50% or more. Effects have a minus sign here. Some of the results follow.
Target: human ether-à-go-go-related gene (hERG) potassium channel (human, UniProt Q12809)
Test: primary screen, population patch clamp on CHO cells stably expressing hERG

Chain of human ether-à-go-go-related gene (hERG) potassium channel (Q12809 whole entry, looked up): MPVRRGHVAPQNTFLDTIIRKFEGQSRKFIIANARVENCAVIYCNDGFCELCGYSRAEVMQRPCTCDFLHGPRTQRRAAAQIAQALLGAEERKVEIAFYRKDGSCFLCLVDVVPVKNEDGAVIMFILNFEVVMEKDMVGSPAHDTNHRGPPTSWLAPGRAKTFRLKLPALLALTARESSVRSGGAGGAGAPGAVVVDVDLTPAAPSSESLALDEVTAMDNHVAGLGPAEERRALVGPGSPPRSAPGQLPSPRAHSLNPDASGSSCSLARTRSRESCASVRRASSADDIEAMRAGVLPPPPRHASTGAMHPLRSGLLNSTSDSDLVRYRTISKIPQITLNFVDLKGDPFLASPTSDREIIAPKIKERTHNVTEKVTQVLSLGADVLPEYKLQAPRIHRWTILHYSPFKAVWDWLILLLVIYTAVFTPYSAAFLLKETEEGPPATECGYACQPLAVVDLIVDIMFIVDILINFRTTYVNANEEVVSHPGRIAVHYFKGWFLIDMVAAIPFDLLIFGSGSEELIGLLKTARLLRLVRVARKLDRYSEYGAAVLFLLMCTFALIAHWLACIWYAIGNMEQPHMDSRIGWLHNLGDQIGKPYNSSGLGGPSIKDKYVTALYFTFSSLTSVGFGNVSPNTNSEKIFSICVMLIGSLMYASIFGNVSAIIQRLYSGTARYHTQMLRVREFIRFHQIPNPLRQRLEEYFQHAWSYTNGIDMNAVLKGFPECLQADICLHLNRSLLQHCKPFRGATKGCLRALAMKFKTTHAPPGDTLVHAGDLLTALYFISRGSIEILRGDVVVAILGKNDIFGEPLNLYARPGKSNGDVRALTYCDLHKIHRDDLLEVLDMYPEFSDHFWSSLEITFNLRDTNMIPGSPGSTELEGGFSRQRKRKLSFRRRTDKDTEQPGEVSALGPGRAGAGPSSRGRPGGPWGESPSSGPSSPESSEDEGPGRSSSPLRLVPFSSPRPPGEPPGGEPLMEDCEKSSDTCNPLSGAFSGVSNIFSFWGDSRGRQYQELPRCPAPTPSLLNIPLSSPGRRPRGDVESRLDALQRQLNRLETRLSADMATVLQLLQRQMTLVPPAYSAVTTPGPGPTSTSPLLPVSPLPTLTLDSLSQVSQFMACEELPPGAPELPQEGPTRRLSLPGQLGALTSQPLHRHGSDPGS

Row | SMILES | hERG current change (%, negative = inhibition) at 1uM [%]
1 | CC1CC/C(=N/Nc2ccccc2)C(=O)N1 (centres unmarked) | 2.19
2 | CCOC(=O)c1c(C)[nH]c(C)c1S(=O)(=O)NCc1cc(C)ccc1C | 3.32
3 | Cc1ccc(S(=O)(=O)NNC(=O)CCCCC(=O)NNS(=O)(=O)c2ccc(C)cc2)cc1 | 0.743
4 | CC(NC(=O)c1ccccc1)C(=O)N/N=C/c1ccccc1 (centres unmarked) | 9.43
5 | COc1c([N+](=O)[O-])c(=O)n(-c2ccccc2)c2ccccc12 | 6.54
6 | OCC1CCN(Cc2cn(Cc3ccccc3)nc2-c2cc3ccccc3o2)CC1 | -37.2
7 | Cc1nn(-c2ccccc2)c(C)c1C(=O)OCC(=O)c1c(N)n(CC(C)C)c(=O)n(C)c1=O | 16.1
8 | CC1=C(C(=O)Nc2ccccc2)C(c2cccnc2)n2nc(-c3cccnc3)nc2N1 (centres unmarked) | -4.48
9 | O=c1[nH]c(SCc2cccc(F)c2)nc2ccccc12 | 9.02
10 | Cn1c(=O)c2c(nc(SCC(=O)c3cccs3)n2Cc2ccc(F)cc2)n(C)c1=O | -2.72
11 | CCOC(=O)Cc1cc(=O)n2[nH]c(C)c(-c3ccc(OC)cc3)c2n1 | -3.61
12 | Cc1ccc(S(=O)(=O)Nc2cccc3c2CCCC3)cc1 | 15.1
13 | Cn1c(=O)c2c(nc(OCc3ccccc3)n2C)n(C)c1=O | 14.1
14 | CCOC(=O)N1CCN(C(=O)CNC(=O)c2nn(-c3ccc(OC)c(Cl)c3)c(=O)c3ccccc23)CC1 | 9.65
15 | N#Cc1ccc(COC(=O)c2ccc3c(=O)[nH]c(CN4CCOCC4)nc3c2)cc1 | -8.59
16 | Cc1cc(-c2ccccc2)nc(N(C)NC(=O)C2CC2)c1S(C)(=O)=O | 9.67
17 | O=C(CSC(=S)N1CCCCC1)c1c(F)cccc1F | 21.7
18 | CCCNC(=O)NC(=O)COc1ccc2oc3ccccc3c2c1 | 6.28
19 | Br.CC(=O)c1sc(N/N=C2\CC3CC2C(C)C3(C)C)nc1C (centres unmarked) | 11.8

Row | SMILES | hERG current change (%, negative = inhibition) at 1uM [%]
20 | COc1ccc(C(=O)Nc2cccc3c2CCCC3)cc1OC | 13.5
21 | COc1c(Cl)cc(Br)c(OC)c1C(=O)NC(=O)Nc1nc(C)cc(C)n1 | 17.7
22 | Cc1ccc(-n2nnc3c(=O)n(CC(N)=O)cnc32)cc1 | 12.2
23 | COc1cccc(CN2C(=O)C(C)N(C(=O)c3ccccc3)c3ccccc32)c1 (centres unmarked) | 12.9
24 | CC1(c2ccccc2)NC(=O)N(CC(=O)N2CCN(S(=O)(=O)c3ccccc3[N+](=O)[O-])CC2)C1=O (centres unmarked) | 17.7
25 | Cc1onc(-c2c(Cl)cccc2Cl)c1C(=O)NC(=S)Nc1sc2c(c1C(N)=O)CCC(C)C2 (centres unmarked) | 7.34
26 | Cc1ccc(-c2csc3ncnc(N4CCN(C(=O)c5ccco5)CC4)c23)cc1 | -22.8
27 | O=C(COc1ccc(Br)cc1)N(Cc1cccs1)C1CCS(=O)(=O)C1 (centres unmarked) | 5.76
28 | Cc1nn(-c2ccc(C(=O)Nc3nnc(C4CC4)s3)cc2)c(C)c1Cl | 7.1
29 | Cc1nc2nc(C)c(NS(=O)(=O)c3cccs3)c(=O)n2[nH]1 | 11.8
30 | COc1ccc(-c2nnn(CCC(=O)O)n2)cc1 | 6.25
31 | O=C(O)CSCC(=O)N(c1ccccc1)c1ccccc1 | 17.8
32 | Cc1cc(C)n(-c2nc3ccccc3nc2N2CCOCC2)n1 | 15.1
33 | COc1ccc(N2CCN(C(=O)c3ccc4c(c3)NC(=O)C(CSCc3ccc(C)cc3)N4)CC2)cc1 (centres unmarked) | 14
34 | CCCc1ccc(C(=O)NNc2cc(Cl)ccc2Cl)cc1 | 7.35
35 | Cc1cc(C(=O)NNC(=O)Nc2cccc(C(F)(F)F)c2)no1 | 14.9
36 | N#Cc1nc(-c2ccc(F)cc2)oc1N1CCCC1 | -0.732
37 | NC(=O)COC(=O)c1c2c(nc3ccccc13)CCCCC2 | 2.21
38 | Cc1nc(SCc2ccc(O)c([N+](=O)[O-])c2)c([N+](=O)[O-])[nH]1 | 9.15

Row | SMILES | hERG current change (%, negative = inhibition) at 1uM [%]
39 | Cc1cccc(C)c1NC(=O)C1C2C=CC(C2)C1C(=O)O (centres unmarked) | 9.96
40 | Cc1cc(NC(=O)COC(=O)C2CCN(S(=O)(=O)c3cccc(Cl)c3Cl)CC2)no1 | 8.08
41 | COc1ccc(NC(=O)C(c2ccc(C)cc2)N(C)C(=O)c2cnccn2)cc1 (centres unmarked) | -17.5
42 | COc1ccc(/C(C)=N/Nc2nc3ccccc3nc2C)cc1 | 8.76
43 | COc1ccccc1-c1nnc(NC(=O)c2ccc(S(=O)(=O)N(C)Cc3ccccc3)cc2)o1 | 4.43
44 | Cc1ccc(CNC(=O)CSCc2ccc(F)cc2)cc1 | 3.73
45 | CC(=O)N1N=C(c2ccc(Br)cc2)CC1c1cn(C)c2ccccc12 (centres unmarked) | 9.41
46 | O=C(c1ccncc1)N1CCN(S(=O)(=O)c2cccc(C(F)(F)F)c2)CC1 | -0.517
47 | Cc1ccc(CN2CCN(/N=C/c3ccco3)CC2)c(C)c1 | 0.601
48 | O=C(Nn1cnnc1)c1cc2c(s1)CCCC2 | 6.23
49 | COCC(=O)Nc1ccc(N2CCN(c3ccccc3)CC2)c(F)c1 | 20.7
50 | Cn1c(=O)n(C)c2cc(/C=N/NC(=O)c3ccc(Cl)cc3Cl)ccc21 | 4.2
51 | CN(CC(=O)Nc1cccc(F)c1)C(=O)CCC1CCCCC1 | 11.4
52 | Fc1ccc(CN2CC[C@H]3C=CCc4cccc(c43)C2)cc1 | 3.8
53 | Cc1nc(C)c(C(=O)Nc2ccc(Oc3ccccc3)cc2)o1 | -6.52
54 | CC(C)c1nnc(NC(=O)CCC(=O)NC2CC2)s1 | 15.4
55 | Cc1ccc(-c2nc(NCC3CCCO3)sc2C)cc1 (centres unmarked) | 6.07
56 | CC(C)(C)NC(=O)c1ccc2c(c1)N(CC(=O)N1CCN(c3ccc(F)cc3)CC1)C(=O)C(C)(C)O2 | -10.4

Source: publication PMC4336329 (PLoS ONE, 2015)
